# Test results taken from the supplement of paper PMC8728848.
# Some of the results follow.
# How the values were obtained:
# Assay in all cases: glycan array binding signal (z-score within array); higher = stronger binding
# Details in all cases: glycan notation: IUPAC condensed, linker removed
# [1] = molecular target: Fuc(a1-2)[GalNAc(a1-3)]Gal(b1-4)Glc
# How it was run: (§1)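 From the Consortium for Functional Glycomics database, 3228 arrays were curated, keeping only those whose protein sequence was available. Binding is given as a within-array Z-score averaged across arrays sharing a protein sequence and across linkers. Negative Z-scores can be read as non-binding.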
# [2] = molecular target: Fuc(a1-2)[GalNAc(a1-3)]Gal(b1-4)GlcNAc
# How it was run: as §1
# [3] = molecular target: Fuc(a1-2)[GalNAc(a1-3)]Gal(b1-4)GlcNAc(b1-2)Man(a1-3)[Fuc(a1-2)[GalNAc(a1-3)]Gal(b1-4)GlcNAc(b1-2)Man(a1-6)]Man(b1-4)GlcNAc(b1-4)GlcNAc
# How it was run: as §1
# [4] = molecular target: Fuc(a1-2)[GalNAc(a1-3)]Gal(b1-4)GlcNAc(b1-2)Man(a1-3)[Fuc(a1-2)[GalNAc(a1-3)]Gal(b1-4)GlcNAc(b1-2)Man(a1-6)]Man(b1-4)GlcNAc(b1-4)[Fuc(a1-6)]GlcNAc
# How it was run: as §1
# [5] = molecular target: Fuc(a1-2)[GalNAc(a1-3)]Gal(b1-4)GlcNAc(b1-3)Gal(b1-4)GlcNAc
# How it was run: as §1
# [6] = molecular target: Fuc(a1-2)[GalNAc(a1-3)]Gal(b1-4)GlcNAc(b1-3)Gal(b1-4)GlcNAc(b1-3)Gal(b1-4)GlcNAc
# How it was run: as §1
# [7] = molecular target: Fuc(a1-2)[GalNAc(a1-3)]Gal(b1-4)GlcNAc(b1-3)GalNAc
# How it was run: as §1
# [8] = molecular target: Fuc(a1-2)[GalNAc(a1-3)]Gal(b1-4)[Fuc(a1-3)]GlcNAc
# How it was run: as §1
# [9] = molecular target: Fuc(a1-2)[GalNAc(a1-3)]Gal(b1-4)[Fuc(a1-3)]GlcNAc(b1-3)GalNAc
# How it was run: as §1
# [10] = molecular target: Fuc(a1-2)[GalNAc(a1-4)]Gal(b1-4)GlcNAc
# How it was run: as §1
# [11] = molecular target: Fuc(a1-2)[GalNAc(b1-3)]Gal
# How it was run: as §1
# [12] = molecular target: Fuc(a1-3)GlcNAc
# How it was run: as §1
# [13] = molecular target: Fuc(a1-3)[Gal(b1-4)]Glc6S
# How it was run: as §1
# [14] = molecular target: Fuc(a1-3)[Gal(b1-4)]GlcNAc
# How it was run: as §1
# [15] = molecular target: Fuc(a1-3)[Gal(b1-4)]GlcNAc(b1-2)Man(a1-3)[Fuc(a1-3)[Gal(b1-4)]GlcNAc(b1-2)Man(a1-6)]Man(b1-4)GlcNAc(b1-4)GlcNAc
# How it was run: as §1
# [16] = molecular target: Fuc(a1-3)[Gal(b1-4)]GlcNAc(b1-2)Man(a1-3)[Fuc(a1-3)[Gal(b1-4)]GlcNAc(b1-2)Man(a1-6)]Man(b1-4)GlcNAc(b1-4)[Fuc(a1-6)]GlcNAc
# How it was run: as §1
# [17] = molecular target: Fuc(a1-3)[Gal(b1-4)]GlcNAc(b1-3)Gal(b1-3)[Fuc(a1-4)]GlcNAc
# How it was run: as §1
# [18] = molecular target: Fuc(a1-3)[Gal(b1-4)]GlcNAc(b1-3)GalNAc
# How it was run: as §1
# [19] = molecular target: Fuc(a1-3)[Gal(b1-4)]GlcNAc(b1-4)Gal(b1-4)[Fuc(a1-3)]GlcNAc
# How it was run: as §1
# [20] = molecular target: Fuc(a1-3)[Gal(b1-4)]GlcNAc(b1-4)Gal(b1-4)[Fuc(a1-3)]GlcNAc(b1-4)Gal(b1-4)[Fuc(a1-3)]GlcNAc
# How it was run: as §1
# [21] = molecular target: Fuc(a1-3)[Gal(b1-4)]GlcNAc(b1-6)GalNAc
# How it was run: as §1
# [22] = molecular target: Fuc(a1-3)[Gal(b1-4)]GlcNAc(b1-6)[Gal(b1-3)GlcNAc(b1-3)]Gal(b1-4)Glc
# How it was run: as §1
# [23] = molecular target: Fuc(a1-3)[Gal(b1-4)]GlcNAc(b1-6)[Neu5Ac(a2-3)Gal(b1-3)]GalNAc
# How it was run: as §1
# [24] = molecular target: Fuc(a1-3)[Gal(b1-4)]GlcNAc6S
# How it was run: as §1
# [25] = molecular target: Fuc(a1-3)[Gal3S(b1-4)]GlcNAc
# How it was run: as §1
# [26] = molecular target: Fuc(a1-3)[Gal3S(b1-4)]GlcNAc6S
# How it was run: as §1
# [27] = molecular target: Fuc(a1-3)[GalNAc(b1-4)]GlcNAc
# How it was run: as §1
# [28] = molecular target: Fuc(a1-4)GlcNAc
# How it was run: as §1
# [29] = molecular target: Fuc(b1-3)GlcNAc
# How it was run: as §1
# [30] = molecular target: Gal(a1-2)Gal
# How it was run: as §1
# [31] = molecular target: Gal(a1-3)Gal
# How it was run: as §1
# [32] = molecular target: Gal(a1-3)Gal(b1-3)GlcNAc
# How it was run: as §1
# [33] = molecular target: Gal(a1-3)Gal(b1-3)GlcNAc(b1-2)Man(a1-3)[Gal(a1-3)Gal(b1-3)GlcNAc(b1-2)Man(a1-6)]Man(b1-4)GlcNAc(b1-4)GlcNAc
# How it was run: as §1
# [34] = molecular target: Gal(a1-3)Gal(b1-3)GlcNAc(b1-3)GalNAc
# How it was run: as §1
# [35] = molecular target: Gal(a1-3)Gal(b1-3)[Fuc(a1-4)]GlcNAc(b1-2)Man(a1-3)[Gal(a1-3)Gal(b1-3)[Fuc(a1-4)]GlcNAc(b1-2)Man(a1-6)]Man(b1-4)GlcNAc(b1-4)GlcNAc
# How it was run: as §1
# [36] = molecular target: Gal(a1-3)Gal(b1-4)Glc
# How it was run: as §1
# [37] = molecular target: Gal(a1-3)Gal(b1-4)GlcNAc
# How it was run: as §1
# [38] = molecular target: Gal(a1-3)Gal(b1-4)GlcNAc(b1-3)GalNAc
# How it was run: as §1
# [39] = molecular target: Gal(a1-3)Gal(b1-4)[Fuc(a1-3)]GlcNAc
# How it was run: as §1
# [40] = molecular target: Gal(a1-3)Gal(b1-4)[Fuc(a1-3)]GlcNAc(b1-2)Man(a1-3)[Gal(a1-3)Gal(b1-4)[Fuc(a1-3)]GlcNAc(b1-2)Man(a1-6)]Man(b1-4)GlcNAc(b1-4)GlcNAc
# How it was run: as §1
# [41] = molecular target: Gal(a1-3)GalNAc
# How it was run: as §1
# [42] = molecular target: Gal(a1-3)[Gal(a1-4)]Gal(b1-4)GlcNAc
# How it was run: as §1
# [43] = molecular target: Gal(a1-4)Gal(b1-3)GlcNAc(b1-2)Man(a1-3)[Gal(a1-4)Gal(b1-3)GlcNAc(b1-2)Man(a1-6)]Man(b1-4)GlcNAc(b1-4)GlcNAc
# How it was run: as §1
# [44] = molecular target: Gal(a1-4)Gal(b1-4)Glc
# How it was run: as §1
# [45] = molecular target: Gal(a1-4)Gal(b1-4)GlcNAc
# How it was run: as §1
# [46] = molecular target: Gal(a1-4)Gal(b1-4)GlcNAc(b1-2)Man(a1-3)[Gal(a1-4)Gal(b1-4)GlcNAc(b1-2)Man(a1-6)]Man(b1-4)GlcNAc(b1-4)GlcNAc
# How it was run: as §1
# [47] = molecular target: Gal(a1-4)Gal(b1-4)GlcNAc(b1-3)Gal(b1-4)Glc
# How it was run: as §1
# [48] = molecular target: Gal(a1-4)GlcNAc
# How it was run: as §1
# [49] = molecular target: Gal(a1-6)Glc
# How it was run: as §1
# [50] = molecular target: Gal(b1-2)Gal
# How it was run: as §1
# [51] = molecular target: Gal(b1-3)Gal
# How it was run: as §1
# [52] = molecular target: Gal(b1-3)Gal(b1-4)GlcNAc
# How it was run: as §1
# [53] = molecular target: Gal(b1-3)Gal(b1-4)GlcNAc(b1-2)Man(a1-3)[Gal(b1-3)Gal(b1-4)GlcNAc(b1-2)Man(a1-6)]Man(b1-4)GlcNAc(b1-4)GlcNAc
# How it was run: as §1
# [54] = molecular target: Gal(b1-3)GalNAc
# How it was run: as §1
# [55] = molecular target: Gal(b1-3)GalNAc(a1-3)[Fuc(a1-2)]Gal(b1-4)Glc
# How it was run: as §1
# [56] = molecular target: Gal(b1-3)GalNAc(a1-3)[Fuc(a1-2)]Gal(b1-4)GlcNAc
# How it was run: as §1
# [57] = molecular target: Gal(b1-3)GalNAc(b1-3)Gal(a1-4)Gal(b1-4)Glc
# How it was run: as §1
# [58] = molecular target: Gal(b1-3)GalNAc(b1-4)Gal(b1-4)Glc
# How it was run: as §1
# [59] = molecular target: Gal(b1-3)GalNAc(b1-4)[Neu5Ac(a2-3)]Gal(b1-4)Glc
# How it was run: as §1
# [60] = molecular target: Gal(b1-3)GlcNAc
# How it was run: as §1
binder,measurement,setting,value
SCA (Schizophyllum commune) (protein) MGIDQGVYLITNAGSGTAATLKDGYVKGWERIKGKEQLNQLWFVKSVKTSASDPGYAAFNLATNKVLDLEKGLADRGTPILGWDYHEGDNQHWVIKKQADGKYYKIQSVKTQTFVDLNNGGKDNGTKIQGWVGSWDETNSHQRWVFNQFSATGSRIKSILDTHPKIHGKVIVEWPDRIYFTPDQYIFEAIWAKTGLADIKPRDPLFQSEAYEKVFKGWVVSRAQEIIKVDGFDILVGSLSLVEKSTQKIKVLDVSVRTSDDKSPDLSQIVFFDPESGRTLVDIPEGYEVNSVII,glycan array binding signal (z-score),[1],-0.162
same,glycan array binding signal (z-score),[2],-0.161
same,glycan array binding signal (z-score),[3],-0.162
same,glycan array binding signal (z-score),[4],-0.161
same,glycan array binding signal (z-score),[5],-0.161
same,glycan array binding signal (z-score),[6],-0.011
same,glycan array binding signal (z-score),[7],-0.162
same,glycan array binding signal (z-score),[8],-0.153
same,glycan array binding signal (z-score),[9],-0.129
same,glycan array binding signal (z-score),[10],0.703
same,glycan array binding signal (z-score),[11],-0.163
same,glycan array binding signal (z-score),[12],-0.163
same,glycan array binding signal (z-score),[13],-0.16
same,glycan array binding signal (z-score),[14],-0.162
same,glycan array binding signal (z-score),[15],-0.162
same,glycan array binding signal (z-score),[16],-0.156
same,glycan array binding signal (z-score),[17],-0.159
same,glycan array binding signal (z-score),[18],-0.161
same,glycan array binding signal (z-score),[19],-0.16
same,glycan array binding signal (z-score),[20],-0.163
same,glycan array binding signal (z-score),[21],-0.157
same,glycan array binding signal (z-score),[22],-0.16
same,glycan array binding signal (z-score),[23],-0.161
same,glycan array binding signal (z-score),[24],-0.16
same,glycan array binding signal (z-score),[25],-0.161
same,glycan array binding signal (z-score),[26],-0.16
same,glycan array binding signal (z-score),[27],-0.162
same,glycan array binding signal (z-score),[28],-0.163
same,glycan array binding signal (z-score),[29],-0.159
same,glycan array binding signal (z-score),[30],-0.159
same,glycan array binding signal (z-score),[31],-0.122
same,glycan array binding signal (z-score),[32],-0.119
same,glycan array binding signal (z-score),[33],-0.16
same,glycan array binding signal (z-score),[34],-0.09
same,glycan array binding signal (z-score),[35],-0.15
same,glycan array binding signal (z-score),[36],-0.147
same,glycan array binding signal (z-score),[37],8.25
same,glycan array binding signal (z-score),[38],2.37
same,glycan array binding signal (z-score),[39],-0.163
same,glycan array binding signal (z-score),[40],-0.159
same,glycan array binding signal (z-score),[41],-0.158
same,glycan array binding signal (z-score),[42],-0.163
same,glycan array binding signal (z-score),[43],3.68
same,glycan array binding signal (z-score),[44],-0.163
same,glycan array binding signal (z-score),[45],-0.085
same,glycan array binding signal (z-score),[46],0.897
same,glycan array binding signal (z-score),[47],-0.124
same,glycan array binding signal (z-score),[48],-0.135
same,glycan array binding signal (z-score),[49],-0.161
same,glycan array binding signal (z-score),[50],-0.162
same,glycan array binding signal (z-score),[51],-0.162
same,glycan array binding signal (z-score),[52],-0.164
same,glycan array binding signal (z-score),[53],11.4
same,glycan array binding signal (z-score),[54],-0.16
same,glycan array binding signal (z-score),[55],-0.16
same,glycan array binding signal (z-score),[56],-0.158
same,glycan array binding signal (z-score),[57],-0.16
same,glycan array binding signal (z-score),[58],-0.158
same,glycan array binding signal (z-score),[59],-0.16
same,glycan array binding signal (z-score),[60],-0.162
